This is one part of the list. The data describe in vitro nicking of single-stranded DNA by Rep domains at 3 µM enzyme and 37 °C for 1 h; the strands have 90 letters, of which the middle is given. Numbers give uncut DNA relative to the enzyme-free pool, as log2; more negative means more cut, near 0 not cut, and no call is made. Counts are relative to all reads; uncut strands gain when others are lost, and binding without cutting may add a little.
test system: T1, Rep nickase domain of tomato golden mosaic virus; test: uncleaved DNA left, log2 of reads against the no-enzyme library (log2 ratio); higher = less cleavage (more negative = more Rep cleavage of the k-mer); sequences stand for … in CTCGTCCG…ACCGGAGA
T1 sequence (residues 1-124, tag not shown): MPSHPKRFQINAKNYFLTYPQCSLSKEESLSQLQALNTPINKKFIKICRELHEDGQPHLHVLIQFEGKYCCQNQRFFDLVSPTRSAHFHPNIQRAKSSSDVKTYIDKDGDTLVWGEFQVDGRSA
Procedure: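 A pool of 90-nt single-stranded DNAs with seven random bases just before the constant AC of the nick site (name = the seven bases) was cut by 3 µM recombinant His6-SUMO-tagged Rep nickase domain (300 nM DNA, 50 mM HEPES pH 8.0, 50 mM NaCl, 1 mM MnCl2, 1 h, 37 °C, three replicates). Uncut DNA was amplified and sequenced.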

Sequence | uncleaved DNA left (log2)
CAGGAGG | 0.0137
AGCCAGA | -0.0829
GGTCGCT | -0.0495
TGGCTGG | 0.0374
TGGTCAC | 0.131
TTACTCT | -0.0924
GCTGAGG | -0.0225
TGGAAGC | 0.0597
GGGAGTG | -0.0753
GATTATA | 0.0965
TTTAAAT | -0.0246
TATCGTG | -0.0096
AGGTCTA | 0.043
TCTTGAC | -0.152
CTTCCTT | -0.152
ACTGTCT | -0.0301
TATGGTC | 0.0229
GGAGGGG | 0.0456
CTTAGAC | 0.0295
GCCGTCT | 0.039

Sequence | uncleaved DNA left (log2)
GCCCCAG | 0.157
TAATAGC | -0.611
ATCCTTT | -0.31
TGACATT | -0.0123
CACGTTT | -0.101
TCACAAC | -0.0913
ATCACCT | -0.0471
ATGTCCT | -0.0739
CAAAAAC | -0.0323
AACTAGT | 0.00472
ATAAAGC | 0.0376
CTCCACT | -0.0427
ACCTGAC | -0.0509
TCCCTGC | 0.0166
ACAAGTC | 0.0309
GGGATGC | 0.025
GTAACAT | 0.0299
TCGGGGT | -0.0149
CCATTGT | -0.351
TTGAGGG | 0.0837
